Data: article PMC9365803

Assays:
[1] = target: DNAJB1^wt (human), P25685; experiment: SEC; Superdex 75 10/300 GL and Superose 6; 30 mM HEPES-KOH pH 7.4, 50 mM KCl, 1 mM β-mercaptoethanol; 0.5 ml/min; Conalbumin and Ovalbumin as standards; details: remark: other sources report otherwise

B1: DNAJB1^wt (natural protein)
chain: MGKDYYQTLGLARGASDEEIKRAYRRQALRYHPDKNKEPGAEEKFKEIAEAYDVLSDPRKREIFDRYGEEGLKGSGPSGGSGGGANGTSFSYTFHGDPHAMFAEFFGGRNPFDTFFGQRNGEEGMDIDDPFSGFPMGMGGFTNVNFGRSRSAQEPARKKQ[about 150 residues not shown]PERIPQTSRTVLEQVLPI
HTTExon1Q48ΔP1
  half-life (T1/2) of HTTExon1Q48ΔP1 fibrilization, FRET assay over 60 h, with Hsc70, Apg2 and ATP (26 h without chaperones): 35 h
[1]
  stoichiometry N: 2
